Inconclusive means that the source gave no clear call. Potencies beside an inconclusive call are fits to weak or partial responses and may not hold up.
test: qHTS for Inhibitors of Plasmodium falciparum (HB3) proliferation (AID 504318); further: nearly all actives have a fitted effect of over 60% in size; details: P. falciparum HB3 in erythrocytes, SYBR Green DNA, 72 h; series mostly up to 7.21 µM; active means well fitted inhibition curve with a large enough effect; inconclusive means small, poorly fitted or top-dose-only effect; inactive means flat fitted curve, though single readings scatter
In short: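 Erythrocytes infected with P. falciparum line (0.3% parasitemia, 2.5% hematocrit final) incubated with compounds 72 h at 37 °C, 5% CO2; SYBR Green lysis buffer added, fluorescence read next day. Normalized to 0.29 uM artemisinin and DMSO.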
Potency means the concentration at half of the fitted maximal effect; tags describe the fitted curve by direction and shape.

Potency, inconclusive:
C=CCN1c2ccccc2[C@]23C[C@@H](C(=O)OC)N(S(=O)(=O)c4ccc([N+](=O)[O-])cc4)C2=NC(C(=O)OC)=C(C(=O)OC)[C@H]13 4260 nM [inhibitor, single point], COC(=O)C1=C(C(=O)OC)[C@@H]2N(C)c3ccccc3[C@@]23C[C@@H](C(=O)OC)N(S(=O)(=O)c2ccc([N+](=O)[O-])cc2)C3=N1 1510 nM [inhibitor, partial curve], COC(=O)N1C(/C=C/C=C/c2ccc(OC)cc2)=Cc2ccccc2C1CC(C)=O (stereo not drawn) 2130 nM [inhibitor, single point], C=CCN1c2ccccc2[C@]23CCC(=O)N(CCOC)C2=NC(C(=O)OC)=C(C(=O)OC)[C@H]13 2940 nM [inhibitor, partial curve, poor fit], COC(=O)C1=C(C(=O)OC)[C@@H]2N(C)c3ccccc3[C@@]23C[C@@H](CO)N(C(=O)NC2CCCCC2)C3=N1 2940 nM [inhibitor, single point], CC1=CC[C@@H](COc2ccccc2)O[C@@]2(C1)C(=O)N(Cc1ccccc1C(F)(F)F)c1ccccc12 1510 nM [inhibitor, partial curve], C[C@@H]1C=CCC(=O)N[C@@H](c2ccc3ccccc3c2)[C@H](C)C=CCC(=O)N[C@@H]1c1ccc2ccccc2c1 2130 nM [inhibitor, single point], CC#CCN1c2ccccc2[C@]23C[C@@H](C(=O)OC)N(S(=O)(=O)CCCC)C2=NC(C(=O)OC)=C(C(=O)OC)[C@H]13 1510 nM [inhibitor, partial curve]

— PubChem BioAssay (NCATS)
